Reference: the RNAGym collection of RNA variant scans (doi:10.1073/pnas.2313332121)
This sample is rich in variants without activity.

B1: TPR 5TU (parent)
chain: GGAUCUUCUCGAUCUAACAAAAAAGACAAAUCUGCCACAAAGCUUGAGAGCAUCUUCGGAUGCAGAGGCGGCAGCCUUCGGUGGCGCGAUAGCGCCAACGUUCUCAACUAUGACACGCAAAACGCGUGCUCCGUUGAAUGGAGUUUAUCAUG

Variants of: B1
Assay: polymerase ribozyme fitness, log enrichment relative to wild type (log ratio); higher = more active; in vitro selection for triplet polymerase activity
Procedure, shortened: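 PCR was used to build mutant libraries for each subunit of a heterodimeric triplet polymerase ribozyme, which were then transcribed. A single in vitro selection round, in triplicate, used a frozen incubation at −7 °C and recovered extended constructs by gel excision, streptavidin beads and RT-PCR. Fitness is the logarithm of genotype enrichment relative to wild-type enrichment, averaged over replicates with inverse-variance weights. The logarithm is base 2, and after Illumina sequencing only genotypes with ≥10 input reads and ≥1 read per output were kept.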

Polymerase ribozyme fitness (log ratio), ≤ -4.2:
A29C A40G A52C U53A C76A A115G U144G
A29C A40U C87U U104G G143C
A29C A40U G80U C87G U104G
A29C A41G A97C A122U
A29C A41U G81C G86C C105G A106U
A29C A47C A60G G83U A120U
A29C A47G G70C C96U G100A
A29C A49C C93U A115U G133C
A29C A49C G83A C87G C118G
A29C A49C U56G G62U G80A C95G C105G G126A G140U
A29C A49G G50C C76A G124A U135G
A29C A52C G88U
A29C A52G C87U G100C A138U U139A A147C
A29C A52G U53A C93U G124A
A29C A52G U55A C75G A106U A110G A121U U127A
A29C A60C G83U A107U A142C
A29C A64C U90C
A29C A66G C75G C93G C99A G124A G128U
A29C A91C C93A G117U
A29C A150U
A29C C32A
A29C C32G C57A U77A G88C A115U U130A
A29C C32U C35G A66U C87A G94C A107U C125U
A29C C35A A66C C69G C87U C99A
A29C C35A G94A C123U
A29C C35U U44C C57A C87A A97C C105U
A29C C36A G59U G80U C87A G117C
A29C C36A U55A U61G C87A
A29C C38G A41G U135A
A29C C38G G65U U77A G81C A137G
A29C C38U G92C C114G C116A G143C
A29C C43U G46U G59A C85U
A29C C51A
A29C C51A C69U C79A G83C C85U C132U U151C
A29C C54U C85G G86A C95G C103G G141U
A29C C57A C93U A120U U148A
A29C C57G G71A U90C
A29C C63U A89G A107U A122G U130A A147U
A29C C63U G65U U144G
A29C C69G C76U C95U C131A
A29C C75A G80A G92C A97U G100C A119U U146C
A29C C76A C87G
A29C C79U C85U C96A G128A U135A U148G
A29C C85A G112A
A29C C87A G100A
A29C C96G A121G U151C
A29C C96G G143A
A29C C132A U139C G143A A150U
A29C G34C U82G C118A A138C
A29C G42U C54G C93G G94C A98U G136A A142G G152U
A29C G46A G86C
A29C G46A U53A G68C C75A
A29C G58A G83A C118U
A29C G58C A66U G84U G92C C99G A119G G143U
A29C G58C G74C
A29C G58C G81A G88A
A29C G58C G88U C114U C116A C118U
A29C G58U A60U G80C C95A
A29C G58U U145A
A29C G59A C75U
A29C G59U G92C C96A A107G C125U U127G
A29C G68C A142U
A29C G83C G100C C116A C118G
A29C G92A G143C U146C
A29C U31C G88C A122C
A29C U31G C54A U104C
A29C U33A A41U G42A G83C C96U C108G
A29C U33C U44A G80U C85U C93U G136U
A29C U33G G42C A52C C76U G84A G100C
A29C U33G G48C C54A U55G C87U
A29C U33G G83U U90A U127C A138U U148A
A29C U44A U56A C76A C95U
A29C U45A C95G
A29C U53A
A29C U53A A73C G84C C103G A107U U134G
A29C U53A C57U C76U U82A G83A C114U G143U
A29C U53A U55A C72U C85A U109G U134A G136A U144G C149A
A29C U53G G58C C99G A137G
A29C U55A G67A G83C G124A G126U A138C
A29C U56A C93A
A29C U56C G58C C79G A121G G126A U144A
A29C U77G G94U G136U U139C
A29C U90G
